Sequences and labels used below:
T1: UNK ZnF1-3 (human, UniProt Q9C0B0 31-174)
T1 sequence: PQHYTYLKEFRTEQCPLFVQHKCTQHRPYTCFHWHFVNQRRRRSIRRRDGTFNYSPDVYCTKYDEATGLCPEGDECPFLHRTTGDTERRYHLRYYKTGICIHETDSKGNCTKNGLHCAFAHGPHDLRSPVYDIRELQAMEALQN

B1: chr17:56552419:56552420:-_ENSMUSG00000013236_ENSMUST00000086828|mus_mus|mus_mus_mus_hu_False|8_108 (ssRNA)
RNA: GGGAGUUCUACAGUCCGACGAUCAAAGUUUUUUUCUUUUAAAAAAAAUGAAAUGUCACGGGAUACAGUUACACUGAGAGUUUUAAAAGAAAGCUGGAUUCUGGUCCCAGCCCAGUGUCCCCAGGCUGAGUGCGGAAGAGGAGCCAACAGAGGAUUGAGCAUCA
B2: chr3:103546164:103546165:-_ENSMUSG00000008730_ENSMUST00000118317|mus_hu|FALSE|FALSE (ssRNA)
RNA: GGGAGUUCUACAGUCCGACGAUCUGAGAACUCAGCCGAGAAUCCAAAAUGGAAAGGGGUAGAGGUGGUGGUAAAGGAGAAAAGCUGCUGUUUUUAUUUUUCAAUGUUGGCAGGGAAACUGAGAACAAUGCAUUACACAAUACACAACAGAGGAUUGAGCAUCA
B3: chrX:55033037:55033038:+_ENSG00000169188_ENST00000374987|hu_hu|motif|central (ssRNA)
RNA: GGGAGUUCUACAGUCCGACGAUCAGUGACUGCUGACCAGCAGGUGAAGGCCCCCUCCUGCUUUGGUUGGAAGCAGCGGUAGCGGUCGAUGAAGGGCCCUACAUGAGAGGCAGACUGGCACCCCAAGUUACUGAGCAAGCUGUCCAACAGAGGAUUGAGCAUCA
B4: chr12:77883852:77883853:+_ENSMUSG00000090258_ENSMUST00000041262|mus_mus|FALSE|FALSE (ssRNA)
RNA: GGGAGUUCUACAGUCCGACGAUCAAGAGAACCAUGGGAGGCUUAGAACAGCAGAGUCAUCUGCCGGGGGUCAUCAGGGAGAAUACUGAUAGUAUCUUCAGCUUUGCCACACAACAGACACAGCAUGGUAUAUUCCUGAAAUUCCAACAGAGGAUUGAGCAUCA
B5: chr4:44140560:44140561:-_ENSMUSG00000035696_ENSMUST00000045793|mus_mus|motif|central (ssRNA)
RNA: GGGAGUUCUACAGUCCGACGAUCUUAAGUAUUUCUGACACUAACACAAACCUAGGGGCAACAGAAUGUAGGUCAAAUCCGGUUUGUCUAACUAGGUAGAGGCAACAGUGUCUGGAAGAGGACAAAAUUGUGCUUCUGUGUGGACAACAGAGGAUUGAGCAUCA
B6: chr12:39756943:39756944:-_ENSG00000139116_ENST00000544797|hu_mus|hu_hu_hu_mus_False|78_88 (ssRNA)
RNA: GGGAGUUCUACAGUCCGACGAUCGGUUUGGCUGUUACCCCCAAGGGAAUCCUGUAGUAGUCUUGUUAGCUUAGAGUCUCUGUAAGGGACAUGGGUGGCUCUCUUGCUCUUGUCCCCCAAGGCGCUGAUUACAUUCCCAAGAGCCAACAGAGGAUUGAGCAUCA
B7: chr2:176857141:176857142:-_ENSG00000144320_ENST00000272748|hu_hu|FALSE|FALSE (ssRNA)
RNA: GGGAGUUCUACAGUCCGACGAUCUUUUUGUAAUCUCUGAUUUUUUUCCCUAAAUUCUUCCAAUGCUUGAAUUUCCUUAUCUAUACUUUCUAGAACUUCUACAGUUGAAGGUUUUGUCCUCCAUCGAGAAAAUAAUCCACCCAUCAACAGAGGAUUGAGCAUCA
B8: chr15:52350861:52350862:+_ENSG00000069956_ENST00000261845|hu_hu|FALSE|FALSE (ssRNA)
RNA: GGGAGUUCUACAGUCCGACGAUCUGGAAUUACGCUGAGAAGCUCCUGACGAUCUUCCUCAUGUACAACAGGAAUAGAUUCUAAAAUCAGCUGCAUCUGUUCAAGUUCAUGUGCACCUGCAAAAAGGGUUUUACCAGUCAGCAUCAACAGAGGAUUGAGCAUCA
B9: chr5:145543945:145543946:-_ENSG00000133706_ENST00000545646|hu_hu|hu_hu_hu_mus_True|58_108 (ssRNA)
RNA: GGGAGUUCUACAGUCCGACGAUCCUGAAUAGCCAGUGGUGGGAAAUAAUCAAGCCAGUGCUCUGCUUCAGAAAACUUUACUAUCUCGUCAUCAGAGAGCCCAAGGGAUUUCAUAAUGUCCCACUGGUACUUAGAAGAUCCUGCCAACAGAGGAUUGAGCAUCA
B10: chr1:173273950:173273951:-_ENSMUSG00000013997_ENSMUST00000111295|mus_hu|motif|central (ssRNA)
RNA: GGGAGUUCUACAGUCCGACGAUCAGGCCCCUGCCCUGGAAUCUCUACGUCACACAGAUGUGUCUUCCUGUAAGUGGCCACGGCUGCCCCUUUGCUGUUCAGCAGCACGUGACAAUUGUAGAUUUUCUGAGUCUGCUCCCAGUCCAACAGAGGAUUGAGCAUCA
B11: chr9:95013113:95013114:-_ENSG00000196305_ENST00000443024|hu_hu|hu_hu_hu_mus_False|18_28 (ssRNA)
RNA: GGGAGUUCUACAGUCCGACGAUCCUCAGUCAGAAAGGGCGUGUAAGGGGCCAUCAGUCUGCACAGAGAAAGCAGGACACUGAACAGUGUCUCCAGAGCCAUGACACAAUCCUCCAUCCCAUUUUCACCCUUUAACCUCCUCCUCAACAGAGGAUUGAGCAUCA
B12: chr5:34519336:34519337:-_ENSMUSG00000037235_ENSMUST00000042701|mus_hu|FALSE|FALSE (ssRNA)
RNA: GGGAGUUCUACAGUCCGACGAUCGGUGGUCAUUAAGCCCCUCACACGGCACCUGCCGAGGUUUGCAGCAAUGACGUUUAAUACUUCUGGAAUGAUUAGGAAUCUGAGAACAGACCGUGGGCGGCUAUGCUGACCAGGGCUCCGCAACAGAGGAUUGAGCAUCA
B13: chr5:135912371:135912372:-_ENSMUSG00000039959_ENSMUST00000060311|mus_hu|FALSE|FALSE (ssRNA)
RNA: GGGAGUUCUACAGUCCGACGAUCCAUGUUUUCUAGCUGUGCCUUCAAUCCACUGAUCUCUCUGUAUAGUCGCUCAAUUAAGUGGUCCUUCUCAUCCUUGUUCACACCAUUUUGACUGUUGAAAUUGAAGGGAUCACUGCUGAACAACAGAGGAUUGAGCAUCA
B14: chr1:163112212:163112213:-_ENSG00000143248_ENST00000313961|hu_hu|hu_hu_hu_mus_False|8_18 (ssRNA)
RNA: GGGAGUUCUACAGUCCGACGAUCUUUUAUUAUCAGUAAGAGUGAGUUACAUACUAGGCAAAGUAUUGGAUACAAUAAUCAGGAAACAAACACUAUUGGUCCAGAAUUUAAAACUUUUGGGAUAAAUGCUUACAAAUGGACUUACAACAGAGGAUUGAGCAUCA

The list shows a part of the results.

The assay addresses T1, UNK ZnF1-3. Description: nsRBNS (natural sequence RNA bind-n-seq); RBNS binding buffer (assumed for nsRBNS): 25 mM Tris pH 7.5, 150 mM KCl, 3 mM MgCl2, 0.01% Triton X-100, 500 ug/ml BSA, 20 U/ml SUPERase-In, 4 C; UNK is unkempt and MSI1 is Musashi-1; names of the RNAs are library labels; protein concentration not given here; high values mean tight binding.
In turn, B1 returned a binding signal of 1.11 enrichment R.

In turn, B2 returned a binding signal of 1.66 enrichment R.

Regarding B3, the binding signal was found to be 1.38 enrichment R.

For B4, the binding signal was 1.37 enrichment R.

In turn, B5 returned a binding signal of 1.79 enrichment R.

For the molecule B6, the binding signal is 0.87 enrichment R.

B7 yielded a binding signal of 0.72 enrichment R.

As to B8, the binding signal was determined as 0.824 enrichment R.

B9: the binding signal came to 1.14 enrichment R.

B10 displayed a binding signal of 0.597 enrichment R.

As for B11, the binding signal came to 1.46 enrichment R.

B12 had a binding signal of 1.08 enrichment R.

Regarding B13, the binding signal was found to be 0.629 enrichment R.

Take B14: the binding signal came to 1.09 enrichment R.

Values taken from article PMC12136788.
